From the supplement of paper PMC11417369
± gives the standard deviation of the averaged measurements. Some of the results follow.

Each sequence was assayed on PfAP2-G AP2 domain (GST-tagged) (assay: gcPBM binding intensity (ln(normalized median fluorescence intensity)); higher = stronger DNA binding).
In short: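 For binding intensity, the highest Masliner-normalised natural-log median intensity across replicate spots of either probe orientation was taken. Protein bound to the array was stained with Alexa488 anti-GST antibody and scanned at 488 nm. The protein, GST-tagged P. falciparum DNA-binding domains from E. coli at about 25 μg on average, had been applied for 1 h to an Agilent 4 × 180k array of primer-extended double-stranded 36-bp intergenic genomic probes and negative controls.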

Sequence	gcPBM binding intensity (ln)
ATTTGTAATTTATTCAAACACACAATTTGGACCTTT [CACACA_site1062]	10.3 ± 0.39
ATATATGTATATATTTGTACATATAATATTTTTTAA [XGTACX_site6345]	10.8 ± 0.47
TATTCACATACAGAAACACACACATATATATAAATT [CACACA_site9232]	10.01 ± 0.021
AATATAATAACTTATTGTACGAAATTATATCACCTT [XGTACX_site7883]	10.7 ± 0.45
TTTGTGTGTGCGTGTGCATGTTGTTTTTTTCTATAA [TGCATGCA_site17]	10.5 ± 0.23
TTCGTTCTTTTATGCACACTCAACATATAAATTAAA [CACACA_site1209]	10.4 ± 0.38
TGTACAAATATGTACACACACACATATATATATATA [CACACA_site584]	11.4 ± 0.91
TATTATTTTAAAAATGCATGTTCATATGAAATAATA [TGCATGCA_site969]	9.99 ± 0.28
TTATAATATATATGTAGTACTGTTTTTTTCTATTTT [XGTACX_site7749]	11 ± 0.63
ATACTATTATATATATGTACATATATATGATGCTCT [XGTACX_site1771]	11.1 ± 0.67
AAGGAGCCTATGAACACACACATGTACATATATTAA [CACACA_site4084]	11.2 ± 0.55
AATATATATTTATGTACACACTCCAATACAGATACA [CACACA_site5481]	11.6 ± 0.95
CATATACATACACATACACACATACACCCATACACA [CACACA_site8514]	10.4 ± 0.38
TGTAAAAAATTTAACACACACATATATAAATATGTA [CACACA_site7261]	9.66 ± 0.028
AGTAAATAATTATATACATGCATTTACTAATATTTA [TGCATGCA_site952]	9.76 ± 0.085
ATATGACGTAGTGGTGTACACACATGGTACCTTTAT [CACACA_site8436]	11.9 ± 1.1
ACAAGACAACAAGGAAGTACTCATAAATATATTTGG [XGTACX_site1423]	11.2 ± 0.66
TTTTTATGTGTATATTATTACATTTACATCTTTAAC [CACACA_negctrl_site1676]	10 ± 0.042
CTCACATATATATATAGTACAATTTTTTTTTTTTTT [XGTACX_site5999]	10.7 ± 0.4
ATGTAGAATTGTAAATGTACATGAAACACATATTCA [XGTACX_site3436]	10.9 ± 0.38
AAGAAAAATACTACGTGTACCAAACTTCCTACCAAC [XGTACX_site1426]	11.1 ± 0.54
TATATATATATATTATGTACATATAAATATATTTTT [XGTACX_site1509]	11.3 ± 0.55
ATATATATATAAATATGTACATATTTATATATGAAT [XGTACX_site3220]	11.3 ± 0.86
ATCTATATTATAATAACACACATATATTATAGTATA [CACACA_site6330]	9.84 ± 0.18
TGTAAATATAAAAGATAATGATAAAAGGGACATTTT [CACACA_negctrl_site661]	10.4 ± 0.25
